From the supplement of paper PMC8728848
Some of the results follow.

Tests used:
Experiment in all cases: glycan array binding signal (z-score within array); higher = stronger binding
Conditions in all cases: glycan notation: IUPAC condensed, linker removed
Fuc(a1-2)Gal = target: Fuc(a1-2)Gal
Method in brief: (§1)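 From the Consortium for Functional Glycomics database, 3228 arrays were curated, keeping only those whose protein sequence was available. Binding is given as a within-array Z-score averaged across arrays sharing a protein sequence and across linkers. Negative Z-scores can be read as non-binding.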

Fuc(a1-2)Gal(b1-3)GalNAc = target: Fuc(a1-2)Gal(b1-3)GalNAc
Method in brief: as §1

[1] = target: Fuc(a1-2)Gal(b1-3)GalNAc(a1-3)[Fuc(a1-2)]Gal(b1-4)Glc
Method in brief: as §1

[2] = target: Fuc(a1-2)Gal(b1-3)GalNAc(a1-3)[Fuc(a1-2)]Gal(b1-4)GlcNAc
Method in brief: as §1

[3] = target: Fuc(a1-2)Gal(b1-3)GalNAc(b1-3)Gal
Method in brief: as §1

[4] = target: Fuc(a1-2)Gal(b1-3)GalNAc(b1-3)Gal(a1-4)Gal(b1-4)Glc
Method in brief: as §1

[5] = target: Fuc(a1-2)Gal(b1-3)GalNAc(b1-4)[Neu5Ac(a2-3)]Gal(b1-4)Glc
Method in brief: as §1

Fuc(a1-2)Gal(b1-3)GlcNAc = target: Fuc(a1-2)Gal(b1-3)GlcNAc
Method in brief: as §1

[6] = target: Fuc(a1-2)Gal(b1-3)GlcNAc(b1-2)Man(a1-3)[Fuc(a1-2)Gal(b1-3)GlcNAc(b1-2)Man(a1-6)]Man(b1-4)GlcNAc(b1-4)GlcNAc
Method in brief: as §1

[7] = target: Fuc(a1-2)Gal(b1-3)GlcNAc(b1-2)Man(a1-3)[Fuc(a1-2)Gal(b1-3)GlcNAc(b1-2)Man(a1-6)]Man(b1-4)GlcNAc(b1-4)[Fuc(a1-6)]GlcNAc
Method in brief: as §1

[8] = target: Fuc(a1-2)Gal(b1-3)GlcNAc(b1-3)Gal(b1-4)Glc
Method in brief: as §1

[9] = target: Fuc(a1-2)Gal(b1-3)GlcNAc(b1-3)GalNAc
Method in brief: as §1

[10] = target: Fuc(a1-2)Gal(b1-3)GlcNAc(b1-3)[Fuc(a1-2)Gal(b1-3)GlcNAc(b1-6)]GalNAc
Method in brief: as §1

[11] = target: Fuc(a1-2)Gal(b1-3)GlcNAc(b1-3)[Gal(b1-4)GlcNAc(b1-6)]Gal(b1-4)Glc
Method in brief: as §1

[12] = target: Fuc(a1-2)Gal(b1-3)GlcNAc(b1-3)[Neu5Ac(a2-6)Gal(b1-4)GlcNAc(b1-6)]Gal(b1-4)Glc
Method in brief: as §1

[13] = target: Fuc(a1-2)Gal(b1-3)GlcNAc6S
Method in brief: as §1

[14] = target: Fuc(a1-2)Gal(b1-3)[Fuc(a1-4)]GlcNAc
Method in brief: as §1

[15] = target: Fuc(a1-2)Gal(b1-3)[Fuc(a1-4)]GlcNAc(b1-2)Man(a1-3)[Fuc(a1-2)Gal(b1-3)[Fuc(a1-4)]GlcNAc(b1-2)Man(a1-3)]Man(b1-4)GlcNAc(b1-4)GlcNAc
Method in brief: as §1

[16] = target: Fuc(a1-2)Gal(b1-3)[Fuc(a1-4)]GlcNAc(b1-2)Man(a1-3)[Fuc(a1-2)Gal(b1-3)[Fuc(a1-4)]GlcNAc(b1-2)Man(a1-6)]Man(b1-4)GlcNAc(b1-4)[Fuc(a1-6)]GlcNAc(b1-4)[Fuc(a1-6)]GlcNAc
Method in brief: as §1

[17] = target: Fuc(a1-2)Gal(b1-3)[Fuc(a1-4)]GlcNAc(b1-3)[Fuc(a1-3)[Gal(b1-4)]GlcNAc(b1-6)]Gal(b1-4)Glc
Method in brief: as §1

[18] = target: Fuc(a1-2)Gal(b1-3)[Fuc(a1-4)]GlcNAc(b1-3)[Gal(b1-4)GlcNAc(b1-6)]Gal(b1-4)Glc
Method in brief: as §1

Fuc(a1-2)Gal(b1-4)Glc = target: Fuc(a1-2)Gal(b1-4)Glc
Method in brief: as §1

Fuc(a1-2)Gal(b1-4)Glc6S = target: Fuc(a1-2)Gal(b1-4)Glc6S
Method in brief: as §1

Fuc(a1-2)Gal(b1-4)GlcNAc = target: Fuc(a1-2)Gal(b1-4)GlcNAc
Method in brief: as §1

[19] = target: Fuc(a1-2)Gal(b1-4)GlcNAc(b1-2)Man
Method in brief: as §1

[20] = target: Fuc(a1-2)Gal(b1-4)GlcNAc(b1-2)Man(a1-3)[Fuc(a1-2)Gal(b1-4)GlcNAc(b1-2)Man(a1-6)]Man(b1-4)GlcNAc(b1-4)GlcNAc
Method in brief: as §1

[21] = target: Fuc(a1-2)Gal(b1-4)GlcNAc(b1-2)Man(a1-3)[Fuc(a1-2)Gal(b1-4)GlcNAc(b1-2)Man(a1-6)]Man(b1-4)GlcNAc(b1-4)[Fuc(a1-6)]GlcNAc
Method in brief: as §1

[22] = target: Fuc(a1-2)Gal(b1-4)GlcNAc(b1-2)[Fuc(a1-2)Gal(b1-4)GlcNAc(b1-4)]Man(a1-3)[Fuc(a1-2)Gal(b1-4)GlcNAc(b1-2)Man(a1-6)]Man(b1-4)GlcNAc(b1-4)GlcNAc
Method in brief: as §1

[23] = target: Fuc(a1-2)Gal(b1-4)GlcNAc(b1-3)Gal(b1-4)GlcNAc
Method in brief: as §1

[24] = target: Fuc(a1-2)Gal(b1-4)GlcNAc(b1-3)Gal(b1-4)GlcNAc(b1-2)Man(a1-3)[Fuc(a1-2)Gal(b1-4)GlcNAc(b1-3)Gal(b1-4)GlcNAc(b1-2)Man(a1-6)]Man(b1-4)GlcNAc(b1-4)GlcNAc
Method in brief: as §1

[25] = target: Fuc(a1-2)Gal(b1-4)GlcNAc(b1-3)Gal(b1-4)GlcNAc(b1-3)Gal(b1-4)GlcNAc
Method in brief: as §1

[26] = target: Fuc(a1-2)Gal(b1-4)GlcNAc(b1-3)GalNAc
Method in brief: as §1

[27] = target: Fuc(a1-2)Gal(b1-4)GlcNAc(b1-3)[Fuc(a1-2)Gal(b1-4)GlcNAc(b1-6)]GalNAc
Method in brief: as §1

[28] = target: Fuc(a1-2)Gal(b1-4)GlcNAc(b1-3)[Fuc(a1-3)[Gal(b1-4)]GlcNAc(b1-6)]Gal(b1-4)Glc
Method in brief: as §1

[29] = target: Fuc(a1-2)Gal(b1-4)GlcNAc(b1-6)GalNAc
Method in brief: as §1

[30] = target: Fuc(a1-2)Gal(b1-4)GlcNAc6S
Method in brief: as §1

[31] = target: Fuc(a1-2)Gal(b1-4)[Fuc(a1-3)]GlcNAc
Method in brief: as §1

[32] = target: Fuc(a1-2)Gal(b1-4)[Fuc(a1-3)]GlcNAc(b1-2)Man(a1-3)[Fuc(a1-2)Gal(b1-4)[Fuc(a1-3)]GlcNAc(b1-2)Man(a1-6)]Man(b1-4)GlcNAc(b1-4)[Fuc(a1-6)]GlcNAc
Method in brief: as §1

[33] = target: Fuc(a1-2)Gal(b1-4)[Fuc(a1-3)]GlcNAc(b1-2)[Fuc(a1-2)Gal(b1-4)[Fuc(a1-3)]GlcNAc(b1-4)]Man(a1-3)[Fuc(a1-2)Gal(b1-4)[Fuc(a1-3)]GlcNAc(b1-2)Man(a1-6)]Man(b1-4)GlcNAc(b1-4)GlcNAc
Method in brief: as §1

[34] = target: Fuc(a1-2)Gal(b1-4)[Fuc(a1-3)]GlcNAc(b1-3)Gal(b1-4)[Fuc(a1-3)]GlcNAc
Method in brief: as §1

[35] = target: Fuc(a1-2)Gal(b1-4)[Fuc(a1-3)]GlcNAc(b1-3)Gal(b1-4)[Fuc(a1-3)]GlcNAc(b1-3)Gal(b1-4)[Fuc(a1-3)]GlcNAc
Method in brief: as §1

[36] = target: Fuc(a1-2)Gal(b1-4)[Fuc(a1-3)]GlcNAc(b1-3)GalNAc
Method in brief: as §1

[37] = target: Fuc(a1-2)Gal(b1-4)[Fuc(a1-3)]GlcNAc(b1-3)[Neu5Ac(a2-6)Gal(b1-4)GlcNAc(b1-6)]Gal(b1-4)Glc
Method in brief: as §1

[38] = target: Fuc(a1-2)Gal3S(b1-4)GlcNAc
Method in brief: as §1

[39] = target: Fuc(a1-2)Gal6S(b1-3)GlcNAc
Method in brief: as §1

B1: RBMC2 (Vibrio cholerae) (protein)
chain: KISVRSGFAIDAIGASASTLVGGTGGNLNAAVNVKDIKAIDLTWGKYYWGGYHLLALDFRMSNGSVISMGSKNYAYSKQTERFTVPAGSRIKGIKAWTAGWLLDGVQFELA
glycan array binding signal (z-score) (Fuc(a1-2)Gal): -0.247
glycan array binding signal (z-score) (Fuc(a1-2)Gal(b1-3)GalNAc): -0.229
glycan array binding signal (z-score) [1]: -0.388
glycan array binding signal (z-score) [2]: -0.358
glycan array binding signal (z-score) [3]: -0.1
glycan array binding signal (z-score) [4]: -0.089
glycan array binding signal (z-score) [5]: -0.315
glycan array binding signal (z-score) (Fuc(a1-2)Gal(b1-3)GlcNAc): -0.258
glycan array binding signal (z-score) [6]: 1.42
glycan array binding signal (z-score) [7]: -0.055
glycan array binding signal (z-score) [8]: -0.299
glycan array binding signal (z-score) [9]: -0.315
glycan array binding signal (z-score) [10]: -0.25
glycan array binding signal (z-score) [11]: -0.308
glycan array binding signal (z-score) [12]: -0.25
glycan array binding signal (z-score) [13]: -0.344
glycan array binding signal (z-score) [14]: -0.261
glycan array binding signal (z-score) [15]: -0.045
glycan array binding signal (z-score) [16]: -0.365
glycan array binding signal (z-score) [17]: -0.224
glycan array binding signal (z-score) [18]: -0.282
glycan array binding signal (z-score) (Fuc(a1-2)Gal(b1-4)Glc): -0.416
glycan array binding signal (z-score) (Fuc(a1-2)Gal(b1-4)Glc6S): -0.289
glycan array binding signal (z-score) (Fuc(a1-2)Gal(b1-4)GlcNAc): -0.356
glycan array binding signal (z-score) [19]: -0.138
glycan array binding signal (z-score) [20]: 1.19
glycan array binding signal (z-score) [21]: 0.062
glycan array binding signal (z-score) [22]: 0.016
glycan array binding signal (z-score) [23]: -0.244
glycan array binding signal (z-score) [24]: 3.69
glycan array binding signal (z-score) [25]: -0.422
glycan array binding signal (z-score) [26]: -0.386
glycan array binding signal (z-score) [27]: -0.474
glycan array binding signal (z-score) [28]: -0.262
glycan array binding signal (z-score) [29]: -0.267
glycan array binding signal (z-score) [30]: -0.409
glycan array binding signal (z-score) [31]: -0.357
glycan array binding signal (z-score) [32]: 0.413
glycan array binding signal (z-score) [33]: -0.23
glycan array binding signal (z-score) [34]: -0.291
glycan array binding signal (z-score) [35]: -0.273
glycan array binding signal (z-score) [36]: -0.365
glycan array binding signal (z-score) [37]: -0.425
glycan array binding signal (z-score) [38]: -0.403
glycan array binding signal (z-score) [39]: -0.443
